Reference: the supplement of paper PMC4604168 (melanoma cell lines)
Some of the results follow. Most values come without repeats; read them as rough.

test system: A101D; assay: cell count relative to DMSO control; melanoma cells; higher = more viable cells; conditions: library dose: standard library concentration; 72 h
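Also: cells treated in 1,536-well plates, then fixed and DAPI-stained, with nuclei counted from automated high-throughput microscope images.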

Row | Compound | cell count
1 | COc1cc([C@@H]2c3cc4c(cc3[C@@H](O[C@@H]3O[C@@H]5CO[C@@H](C)O[C@H]5[C@H](O)[C@H]3O)[C@H]3COC(=O)[C@H]23)OCO4)cc(OC)c1O [etoposide] + CN(C)S(=O)(=O)c1ccc2c(c1)/C(=C/c1cc3c([nH]1)CCCC3)C(=O)N2 [SU6656] (first compound 0.1 µM, partner dose 2 µM) | 65.2%
2 | CCN(CC)CCNC(=O)c1c(C)[nH]c(/C=C2\C(=O)Nc3ccc(F)cc32)c1C [sunitinib] + CN(NC(=O)CC(=O)NN(C)C(=S)c1ccccc1)C(=S)c1ccccc1 [STA4783] (first compound 2 µM, partner dose 0.03 µM) | 38%
3 | COc1cc([C@@H]2c3cc4c(cc3[C@@H](O[C@@H]3O[C@@H]5CO[C@@H](C)O[C@H]5[C@H](O)[C@H]3O)[C@H]3COC(=O)[C@H]23)OCO4)cc(OC)c1O [etoposide] + CC1(C)CCC(c2ccc(Cl)cc2)=C(CN2CCN(c3ccc(C(=O)NS(=O)(=O)c4ccc(N[C@H](CCN5CCOCC5)CSc5ccccc5)c(S(=O)(=O)C(F)(F)F)c4)cc3)CC2)C1 [ABT263] (first compound 0.1 µM, partner dose 2 µM) | 48.1%
4 | C[C@]1(O)C[C@@H](c2nc(-c3ccc4ccc(-c5ccccc5)nc4c3)c3c(N)nccn32)C1 + Nc1ccn([C@@H]2O[C@H](CO)[C@@H](O)C2(F)F)c(=O)n1 [gemcitabine] (first compound 2 µM, partner dose 0.002 µM) | 71.4%
5 | CCN(CC)CCNC(=O)c1c(C)[nH]c(/C=C2\C(=O)Nc3ccc(F)cc32)c1C [sunitinib] + OCCn1cc(-c2cnc3nnn(Cc4ccc5ncccc5c4)c3n2)cn1 [PF04217903] (first compound 2 µM, partner dose 5 µM) | 87%
6 | C[C@]1(O)C[C@@H](c2nc(-c3ccc4ccc(-c5ccccc5)nc4c3)c3c(N)nccn32)C1 + C=CCn1c(=O)c2cnc(Nc3ccc(N4CCN(C)CC4)cc3)nc2n1-c1cccc(C(C)(C)O)n1 [MK1775] (first compound 2 µM, partner dose 0.1 µM) | 69%
7 | CCN(CC)CCNC(=O)c1c(C)[nH]c(/C=C2\C(=O)Nc3ccc(F)cc32)c1C [sunitinib] + CNC(=O)c1cc(Oc2ccc(NC(=O)Nc3ccc(Cl)c(C(F)(F)F)c3)cc2)ccn1 [sorafenib] (first compound 2 µM, partner dose 2 µM) | 65.8%
8 | C[C@]1(O)C[C@@H](c2nc(-c3ccc4ccc(-c5ccccc5)nc4c3)c3c(N)nccn32)C1 + CCN(CC)CCNC(=O)c1c(C)[nH]c(/C=C2\C(=O)Nc3ccc(F)cc32)c1C [sunitinib] (first compound 2 µM, partner dose 2 µM) | 69.4%
9 | COc1cc([C@@H]2c3cc4c(cc3[C@@H](O[C@@H]3O[C@@H]5CO[C@@H](C)O[C@H]5[C@H](O)[C@H]3O)[C@H]3COC(=O)[C@H]23)OCO4)cc(OC)c1O [etoposide] + O=C(O)[C@@H]1[O][Sb](=[O])([O][Sb]2(=[O])[O][C@H]([C@H](O)CO)[C@H](O)[C@H](C(=O)O)[O]2)[O][C@H]([C@H](O)CO)[C@@H]1O [stibogluconate] (first compound 0.1 µM, partner dose 10 µM) | 88.6%
10 | COc1cc([C@@H]2c3cc4c(cc3[C@@H](O[C@@H]3O[C@@H]5CO[C@@H](C)O[C@H]5[C@H](O)[C@H]3O)[C@H]3COC(=O)[C@H]23)OCO4)cc(OC)c1O [etoposide] + Cn1nnc2c(C(N)=O)ncn2c1=O [temozolomide] (first compound 0.1 µM, partner dose 10 µM) | 95.4%
11 | C[C@]1(O)C[C@@H](c2nc(-c3ccc4ccc(-c5ccccc5)nc4c3)c3c(N)nccn32)C1 + CN(C)S(=O)(=O)c1ccc2c(c1)/C(=C/c1cc3c([nH]1)CCCC3)C(=O)N2 [SU6656] (first compound 2 µM, partner dose 2 µM) | 70%
12 | C[C@]1(O)C[C@@H](c2nc(-c3ccc4ccc(-c5ccccc5)nc4c3)c3c(N)nccn32)C1 + CC(=O)O[C@@]12CO[C@@H]1C[C@H](O)[C@@]1(C)C(=O)[C@H](O)C3=C(C)[C@@H](OC(=O)[C@H](O)[C@@H](NC(=O)OC(C)(C)C)c4ccccc4)C[C@@](O)([C@@H](OC(=O)c4ccccc4)[C@H]21)C3(C)C [Docetaxel] (first compound 2 µM, partner dose 0.0005 µM) | 51.4%
13 | COc1cc([C@@H]2c3cc4c(cc3[C@@H](O[C@@H]3O[C@@H]5CO[C@@H](C)O[C@H]5[C@H](O)[C@H]3O)[C@H]3COC(=O)[C@H]23)OCO4)cc(OC)c1O [etoposide] + Cc1cn(-c2cc(NC(=O)c3ccc(C)c(Nc4nccc(-c5cccnc5)n4)c3)cc(C(F)(F)F)c2)cn1 [nilotinib] (first compound 0.1 µM, partner dose 1 µM) | 82.6%
14 | C[C@]1(O)C[C@@H](c2nc(-c3ccc4ccc(-c5ccccc5)nc4c3)c3c(N)nccn32)C1 + C=CCNC1=C2C[C@@H](C)C[C@H](OC)[C@H](O)[C@@H](C)/C=C(\C)[C@H](OC(N)=O)[C@@H](OC)/C=C\C=C(/C)C(=O)NC(=CC1=O)C2=O [Tanespimycin] (first compound 2 µM, partner dose 0.01 µM) | 68.2%
15 | COc1cc([C@@H]2c3cc4c(cc3[C@@H](O[C@@H]3O[C@@H]5CO[C@@H](C)O[C@H]5[C@H](O)[C@H]3O)[C@H]3COC(=O)[C@H]23)OCO4)cc(OC)c1O [etoposide] + OCCn1cc(-c2cnc3nnn(Cc4ccc5ncccc5c4)c3n2)cn1 [PF04217903] (first compound 0.1 µM, partner dose 5 µM) | 91%
16 | C[C@]1(O)C[C@@H](c2nc(-c3ccc4ccc(-c5ccccc5)nc4c3)c3c(N)nccn32)C1 + Cc1cc(Nc2cc(N3CCN(C)CC3)nc(/C=C/c3ccccc3)n2)n[nH]1 [ENMD2076] (first compound 2 µM, partner dose 0.2 µM) | 76.4%
17 | COc1cc([C@@H]2c3cc4c(cc3[C@@H](O[C@@H]3O[C@@H]5CO[C@@H](C)O[C@H]5[C@H](O)[C@H]3O)[C@H]3COC(=O)[C@H]23)OCO4)cc(OC)c1O [etoposide] + O=C(Nc1cc(C(F)(F)F)cc(C(F)(F)F)c1)c1cc(Cl)ccc1O [IMD0354] (first compound 0.1 µM, partner dose 0.08 µM) | 79.8%
18 | Cn1cnc2c(F)c(Nc3ccc(Br)cc3Cl)c(C(=O)NOCCO)cc21 [selumetinib] + Nc1ccn([C@@H]2O[C@H](CO)[C@@H](O)C2(F)F)c(=O)n1 [gemcitabine] (first compound 0.075 µM, partner dose 0.002 µM) | 78.9%
19 | COc1cc([C@@H]2c3cc4c(cc3[C@@H](O[C@@H]3O[C@@H]5CO[C@@H](C)O[C@H]5[C@H](O)[C@H]3O)[C@H]3COC(=O)[C@H]23)OCO4)cc(OC)c1O [etoposide] + NC(=O)Nc1cc(-c2cccc(F)c2)sc1C(=O)N[C@H]1CCCNC1 [AZD7762] (first compound 0.1 µM, partner dose 0.1 µM) | 58.9%
20 | CCN(CC)CCNC(=O)c1c(C)[nH]c(/C=C2\C(=O)Nc3ccc(F)cc32)c1C [sunitinib] + COc1cc2c(Oc3ccc4[nH]c(C)cc4c3F)ncnc2cc1OCCCN1CCCC1 [cediranib] (first compound 2 µM, partner dose 2 µM) | 43.9%
21 | C[C@]1(O)C[C@@H](c2nc(-c3ccc4ccc(-c5ccccc5)nc4c3)c3c(N)nccn32)C1 + Cn1cncc1[C@@](N)(c1ccc(Cl)cc1)c1ccc2c(c1)c(-c1cccc(Cl)c1)cc(=O)n2C [tipifarnib] (first compound 2 µM, partner dose 0.05 µM) | 66.7%
22 | COc1cc([C@@H]2c3cc4c(cc3[C@@H](O[C@@H]3O[C@@H]5CO[C@@H](C)O[C@H]5[C@H](O)[C@H]3O)[C@H]3COC(=O)[C@H]23)OCO4)cc(OC)c1O [etoposide] + CNC(=O)c1cc(Oc2ccc(NC(=O)Nc3ccc(Cl)c(C(F)(F)F)c3)cc2)ccn1 [sorafenib] (first compound 0.1 µM, partner dose 2 µM) | 106%
23 | C[C@]1(O)C[C@@H](c2nc(-c3ccc4ccc(-c5ccccc5)nc4c3)c3c(N)nccn32)C1 + CN(NC(=O)CC(=O)NN(C)C(=S)c1ccccc1)C(=S)c1ccccc1 [STA4783] (first compound 2 µM, partner dose 0.03 µM) | 56.5%
24 | COc1cc([C@@H]2c3cc4c(cc3[C@@H](O[C@@H]3O[C@@H]5CO[C@@H](C)O[C@H]5[C@H](O)[C@H]3O)[C@H]3COC(=O)[C@H]23)OCO4)cc(OC)c1O [etoposide] + CCCCCCCCCCCCCCCCCCOP(=O)([O-])OC1CC[N+](C)(C)CC1 [Perifosine] (first compound 0.1 µM, partner dose 2 µM) | 94.1%
